Target: T1, CD47 on the surface of cells (T cells; tumor cell lines H23, SKOV3, ASPC-1, Hgc27) (human, UniProt Q08722)
T1 construct: whole, on cells
Experiment: flow cytometry of T cells with murine anti-human CD47-FITC

Sequence of UniProt Q08722 (Q08722 19-323): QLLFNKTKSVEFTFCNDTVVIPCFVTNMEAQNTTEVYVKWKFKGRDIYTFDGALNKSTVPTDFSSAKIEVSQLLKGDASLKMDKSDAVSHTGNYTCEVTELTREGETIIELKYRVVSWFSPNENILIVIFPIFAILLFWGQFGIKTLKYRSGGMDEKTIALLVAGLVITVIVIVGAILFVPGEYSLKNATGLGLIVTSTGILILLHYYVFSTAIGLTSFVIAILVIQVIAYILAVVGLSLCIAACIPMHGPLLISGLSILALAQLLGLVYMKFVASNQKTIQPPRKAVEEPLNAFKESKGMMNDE

binding result: binds
B1: mutant CD47 antibody (light chain signal peptide-CD47 ligand-IgG4Fc) (Fc fusion)
chain: EEELQIIQPDKSVLVAAGETATLRCTITSLFPVGPIQWFRGAGPGRVLIYNQRQGPFPRVTTVSDTTKRNNMDFSIRIGNITPADAGTYYCIKFRKGSPDDVEFKSGAGTELSVRAKP[human IgG4 Fc with S228P L235E N297Q (EU numbers) cut from this listing]
notes: It was tested as secreted by the cells or as culture supernatant, not purified; also called αCD47

Source: US20210155702A1 (SHANGHAI CELL THERAPY RESEARCH INSTITUTE, published 2021)
